Test: Stability in mouse serum
Format: in vitro ADME
Settings: chimeric IgG2a, 100 μg/mL, 24 h at 37° C. in mouse serum, binding to biotin-IL17C
Method: 96 well Maxisorp plates (Nunc; #442404) were coated with avidin at a concentration of 1 μg/ml in PBS overnight at 4° C. The next day, anti-IL17 chimeric IgG2a were incubated in mouse serum for 24 h at 37° C. at a final concentration 100 μg/mL. After the incubation step the antibodies were diluted 1:100 in LowCross buffer (Candor Bioscience; #100500). As a reference the same set of antibodies were freshly diluted in LowCross buffer+1% mouse serum and incubated for 30 min at RT. Avidin coated plates were incubated with blocking buffer (Superblock blocking buffer from Pierce, #37515) and subsequently 100 μL of 0.1 μg/mL biotin-IL17C in LowCross buffer was added to blocked wells. After a washing step a serial dilution of the serum-incubated and freshly diluted IgGs was added. Binding of IgGs was detected by anti-mouse-IgG2a POD conjugated detection antibody (diluted 1:5000 in LowCross buffer) using TMB One Component HRP as substrate. The reaction was stopped by adding 1M HCl and absorbance was measured at 450 nm.

B1: MOR12760: anti-mouse IL17C HuCAL antibody; CDRs SEQ ID NO: 151-156, VL 157, VH 158 (antibody, V domains shown)
VH: EVQLVQSGAEVKKPGESLKISCKGSGYSFNNYWIAWVRQMPGKGLEWMGFIYPSNSATQYSPSFQGQVTISADKSISTAYLQWSSLKASDTAMYYCARDNEYSDSYFDVWGQGTLVTVSS
VL: DIVLTQSPATLSLSPGERATLSCRASQIVSSYLAWYQQKPGQAPRLLIYDASSRATGIPARFSGSGSGTDFTLTISSLEPEDFATYYCQQSVKSNTFGQGTKVEIKRT
modifications: VH; VL
  stability in mouse serum: only moderate serum stability

From patent publication US10815297B2, “Antagonists of IL17C for the treatment of inflammatory disorders” (MorphoSys AG, priority 2011, dated 2020)
